# In the supplement of paper PMC8728848:
# The other results are listed elsewhere or left out.
# Tests used:
# Assay in all cases: glycan array binding signal (z-score within array); higher = stronger binding
# Conditions in all cases: glycan notation: IUPAC condensed, linker removed
# [1] = molecular target: Gal(b1-3)GlcNAc(b1-3)Gal(b1-4)GlcNAc(b1-2)[Gal(b1-3)GlcNAc(b1-3)Gal(b1-4)GlcNAc(b1-6)]Man(a1-6)[Gal(b1-3)GlcNAc(b1-3)Gal(b1-4)GlcNAc(b1-2)Man(a1-3)]Man(b1-4)GlcNAc(b1-4)[Fuc(a1-6)]GlcNAc
# Outline: (§1)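 Glycan array data came from 3228 arrays in the Consortium for Functional Glycomics database, and only arrays with an available protein sequence were kept. Glycan names were put into IUPAC-condensed notation, and columns mapping to the same glycan were averaged. The binding signal is a within-array Z-score, averaged across arrays of one protein sequence run at different concentrations or buffers and across linkers. A negative Z-score can be read as non-binding.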
# [2] = molecular target: Gal(b1-3)GlcNAc(b1-3)Gal(b1-4)GlcNAc(b1-3)Gal(b1-4)GlcNAc(b1-2)[Gal(b1-3)GlcNAc(b1-3)Gal(b1-4)GlcNAc(b1-3)Gal(b1-4)GlcNAc(b1-6)]Man(a1-6)[Gal(b1-3)GlcNAc(b1-3)Gal(b1-4)GlcNAc(b1-3)Gal(b1-4)GlcNAc(b1-2)Man(a1-3)]Man(b1-4)GlcNAc(b1-4)[Fuc(a1-6)]GlcNAc
# Outline: as §1
# [3] = molecular target: Gal(b1-3)GlcNAc(b1-3)Gal(b1-4)GlcNAc(b1-6)[Gal(b1-3)GlcNAc(b1-3)]Gal(b1-4)Glc
# Outline: as §1
# [4] = molecular target: Gal(b1-3)GlcNAc(b1-3)Gal(b1-4)[Fuc(a1-3)]GlcNAc
# Outline: as §1
# [5] = molecular target: Gal(b1-3)GlcNAc(b1-3)Gal(b1-4)[Fuc(a1-3)]GlcNAc(b1-6)[Gal(b1-3)GlcNAc(b1-3)]Gal(b1-4)Glc
# Outline: as §1
# [6] = molecular target: Gal(b1-3)GlcNAc(b1-3)GalNAc
# Outline: as §1
# [7] = molecular target: Gal(b1-3)GlcNAc(b1-6)Gal(b1-4)GlcNAc
# Outline: as §1
# [8] = molecular target: Gal(b1-3)GlcNAc(b1-6)GalNAc
# Outline: as §1
# [9] = molecular target: Gal(b1-3)GlcNAc(b1-6)[Gal(b1-3)]GalNAc
# Outline: as §1
# Gal(b1-3)GlcNAc6S = molecular target: Gal(b1-3)GlcNAc6S
# Outline: as §1
# [10] = molecular target: Gal(b1-3)[Fuc(a1-4)]GlcNAc
# Outline: as §1
# [11] = molecular target: Gal(b1-3)[Fuc(a1-4)]GlcNAc(b1-2)Man
# Outline: as §1
# [12] = molecular target: Gal(b1-3)[Fuc(a1-4)]GlcNAc(b1-2)Man(a1-3)[Gal(b1-3)[Fuc(a1-4)]GlcNAc(b1-2)Man(a1-6)]Man(b1-4)GlcNAc(b1-4)[Fuc(a1-6)]GlcNAc
# Outline: as §1
# [13] = molecular target: Gal(b1-3)[Fuc(a1-4)]GlcNAc(b1-3)Gal(b1-3)[Fuc(a1-4)]GlcNAc
# Outline: as §1
# [14] = molecular target: Gal(b1-3)[Fuc(a1-4)]GlcNAc(b1-3)Gal(b1-4)[Fuc(a1-3)]GlcNAc
# Outline: as §1
# [15] = molecular target: Gal(b1-3)[Fuc(a1-4)]GlcNAc(b1-6)GalNAc
# Outline: as §1
# [16] = molecular target: Gal(b1-3)[GlcNAc(b1-6)]GalNAc
# Outline: as §1
# [17] = molecular target: Gal(b1-3)[Neu5Ac(a2-6)]GalNAc
# Outline: as §1
# [18] = molecular target: Gal(b1-3)[Neu5Ac(a2-6)]GlcNAc(b1-4)Gal(b1-4)Glc
# Outline: as §1
# [19] = molecular target: Gal(b1-3)[Neu5Ac(b2-6)]GalNAc
# Outline: as §1
# Gal(b1-4)Gal = molecular target: Gal(b1-4)Gal
# Outline: as §1
# [20] = molecular target: Gal(b1-4)GalNAc(a1-3)[Fuc(a1-2)]Gal(b1-4)GlcNAc
# Outline: as §1
# [21] = molecular target: Gal(b1-4)GalNAc(b1-3)[Fuc(a1-2)]Gal(b1-4)GlcNAc
# Outline: as §1
# Gal(b1-4)Glc = molecular target: Gal(b1-4)Glc
# Outline: as §1
# Gal(b1-4)Glc6S = molecular target: Gal(b1-4)Glc6S
# Outline: as §1
# Gal(b1-4)GlcNAc = molecular target: Gal(b1-4)GlcNAc
# Outline: as §1
# [22] = molecular target: Gal(b1-4)GlcNAc(a1-6)Gal(b1-4)GlcNAc
# Outline: as §1
# Gal(b1-4)GlcNAc(b1-2)Man = molecular target: Gal(b1-4)GlcNAc(b1-2)Man
# Outline: as §1
# [23] = molecular target: Gal(b1-4)GlcNAc(b1-2)Man(a1-3)Man(b1-4)GlcNAc(b1-4)GlcNAc
# Outline: as §1
# [24] = molecular target: Gal(b1-4)GlcNAc(b1-2)Man(a1-3)[Gal(b1-4)GlcNAc(b1-2)Man(a1-6)]Man(b1-4)GlcNAc(b1-4)GlcNAc
# Outline: as §1
# [25] = molecular target: Gal(b1-4)GlcNAc(b1-2)Man(a1-3)[Gal(b1-4)GlcNAc(b1-2)Man(a1-6)]Man(b1-4)GlcNAc(b1-4)[Fuc(a1-6)]GlcNAc
# Outline: as §1
# [26] = molecular target: Gal(b1-4)GlcNAc(b1-2)Man(a1-3)[Gal(b1-4)GlcNAc(b1-2)Man(a1-6)][Gal(b1-4)GlcNAc(b1-4)]Man(b1-4)GlcNAc(b1-4)[Fuc(a1-6)]GlcNAc
# Outline: as §1
# [27] = molecular target: Gal(b1-4)GlcNAc(b1-2)Man(a1-3)[Gal(b1-4)GlcNAc(b1-2)Man(a1-6)][GlcNAc(b1-4)]Man(b1-4)GlcNAc(b1-4)[Fuc(a1-6)]GlcNAc
# Outline: as §1
# [28] = molecular target: Gal(b1-4)GlcNAc(b1-2)Man(a1-3)[GlcNAc(b1-2)Man(a1-6)]Man(b1-4)GlcNAc(b1-4)GlcNAc
# Outline: as §1
# [29] = molecular target: Gal(b1-4)GlcNAc(b1-2)Man(a1-3)[GlcNAc(b1-4)][Gal(b1-4)GlcNAc(b1-2)Man(a1-6)]Man(b1-4)GlcNAc(b1-4)GlcNAc
# Outline: as §1
# [30] = molecular target: Gal(b1-4)GlcNAc(b1-2)Man(a1-3)[Man(a1-6)]Man(b1-4)GlcNAc(b1-4)GlcNAc
# Outline: as §1
# [31] = molecular target: Gal(b1-4)GlcNAc(b1-2)Man(a1-6)Man(b1-4)GlcNAc(b1-4)GlcNAc
# Outline: as §1
# [32] = molecular target: Gal(b1-4)GlcNAc(b1-2)Man(a1-6)[GlcNAc(b1-2)Man(a1-3)]Man(b1-4)GlcNAc(b1-4)GlcNAc
# Outline: as §1
binder,measurement,setting,value
PX14343A-bvu-539-29-539 (Bacteroides vulgatus) (protein) DSLTESSSNTFWQTPDDALMALASCYDALQSNQLYNSDQYSLGPLYMDCISDNGGHFNWSGWMEGYDMAMGIHTPSSSIIGSYWKDCYEVISRCNVLIANIDRVDMDASQKAIYQAEAKTIRALMYINLTMTYQDVPFLTAPLTIDEAECEKTDRAAIVAHVMTDLQDAAEVLPQNASSRGHITKGAALSLLGRVALYNEKWDDAIAAYKQVQGLGYSLDPSYAKLFTQSGETSPEIIFAVRYEGPGMSEGAAFNAHWNTPLEAMNGTIDLADAYYCKDGKPTTDTKIAELNGGGGLDVSKPNPAHFENRDPRLYSTLFVPGMLWNGKGGIDTSASNPYANVYGGAAASLSTVYVYKYFDPTDTSNSWDNGQDFYVVRYAEVLLSLAEAMVQKGGYVYSDVTALVNEVRQRADVNMPTVEEVEGTSLSKDELLEVIKHERRVELAFEGLRLFDLYRWKELDKAVANIENERTMYGLAYEARKFNGERDYVWPLPTAELDTNKKLVQHDLWK,glycan array binding signal (z-score),[1],0.349
same,glycan array binding signal (z-score),[2],4.27
same,glycan array binding signal (z-score),[3],-0.114
same,glycan array binding signal (z-score),[4],-0.15
same,glycan array binding signal (z-score),[5],-0.196
same,glycan array binding signal (z-score),[6],-0.353
same,glycan array binding signal (z-score),[7],0.879
same,glycan array binding signal (z-score),[8],-0.191
same,glycan array binding signal (z-score),[9],-0.055
same,glycan array binding signal (z-score),Gal(b1-3)GlcNAc6S,-0.249
same,glycan array binding signal (z-score),[10],-0.05
same,glycan array binding signal (z-score),[11],-0.14
same,glycan array binding signal (z-score),[12],-0.231
same,glycan array binding signal (z-score),[13],-0.355
same,glycan array binding signal (z-score),[14],-0.271
same,glycan array binding signal (z-score),[15],0.091
same,glycan array binding signal (z-score),[16],-0.232
same,glycan array binding signal (z-score),[17],-0.213
same,glycan array binding signal (z-score),[18],-0.417
same,glycan array binding signal (z-score),[19],-0.305
same,glycan array binding signal (z-score),Gal(b1-4)Gal,0.117
same,glycan array binding signal (z-score),[20],-0.379
same,glycan array binding signal (z-score),[21],-0.325
same,glycan array binding signal (z-score),Gal(b1-4)Glc,0.233
same,glycan array binding signal (z-score),Gal(b1-4)Glc6S,-0.058
same,glycan array binding signal (z-score),Gal(b1-4)GlcNAc,-0.25
same,glycan array binding signal (z-score),[22],0.104
same,glycan array binding signal (z-score),Gal(b1-4)GlcNAc(b1-2)Man,-0.281
same,glycan array binding signal (z-score),[23],8.02
same,glycan array binding signal (z-score),[24],0.081
same,glycan array binding signal (z-score),[25],1.39
same,glycan array binding signal (z-score),[26],0.204
same,glycan array binding signal (z-score),[27],-0.362
same,glycan array binding signal (z-score),[28],-0.16
same,glycan array binding signal (z-score),[29],-0.124
same,glycan array binding signal (z-score),[30],-0.02
same,glycan array binding signal (z-score),[31],-0.225
same,glycan array binding signal (z-score),[32],-0.116
